Series [1] has as its system Uke-1 cells. Description: ADCC activity in vitro (Calcein release, NK3.3 effector cells). The class given is cell-based, human. The conditions noted are these: Uke-1 target cells, NK3.3 effector cells 20 to 1, FIG. 17. How it is done:
In brief, Uke-1 cells were stained with Calcein acetoxy-methyl ester (Calcein-AM; Sigma-Aldrich catalog #17783-5MG, St. Louis, Mo.), washed twice, pipetted into a 96-well microtiterplate (96 well, U-bottomed, clear plastic; Corning Costar, catalog #650 160, Tewksbury, Mass.) at a concentration of 5000 cells per well and pre-incubated for 10 min with a serial dilution of the above mentioned antibodies and proteins (from 50,000 to 0.003 μg per ml) before adding the effector NK3.3 cells for 1 hour in an effector to target ratio of 20 to 1. In order to calculate the antibody specific lysis of the target cells, a parallel incubation of target cells only without antibody or effector cells served as a baseline and negative control, whereas the positive control or maximal lysis or hundred percent specific lysis was determined by lysis of target cells only with a 1% Triton-X 100 solution. […] Following a co-incubation of target and effector cells, the microtiterplate was centrifuged and an aliquot of the supernatant fluid was transferred to another microtiterplate (96 well, flat-bottomed, black with clear bottom; (Corning Costar, catalog #3904, Tewksbury, Mass.) and the concentration of free Calcein in solution was determined with a fluorescence counter (Victor 3® multilabel counter, Perkin Elmer, Waltham, Mass.).

For series [2], the system named is primary human mast cells. Description: Mast cell apoptosis (Caspase-Glo 3/7). The following applies: 0.05-100 nM, 1.6 nM rhSCF, 48 h, FIG. 18. The class given is cell-based. The method, then:
Primary human mast cells were cultured from peripheral human blood according to the methods described by Saito et al., Nature Protocols 2006; 1(4):2178-2183. […] Following 30 min incubation at RT, luminescence was recorded on the BioTek® Synergy plate reader (BioTek, Winooski, Vt.).

The subject of series [3] is GIST T1 tumor xenograft. In words: In vivo pharmacodynamic marker modulation (pHH3, cleaved caspase 3 IHC). Set-up: species or system mice. The conditions noted are these: single i.v. dose 5 mg/kg. The text has this: The goal of these studies was to evaluate the degree and duration of G2/M cell cycle arrest.
Presence of ADC was indirectly estimated by detecting human IgG antibody (which is NEG027 in the mouse) in the tumor using an immunohistochemical approach. […] The antibody reacts with whole molecule human IgG and the light chains of other human immunoglobulins with minimal cross-reaction to mouse serum proteins. Briefly, the IHC protocol included heat and standard exposure to Ventana Cell Conditioning #1 antigen retrieval reagent (Ventana, Tucson, Ariz.).
Accumulation of pHH3 positive nuclei, as assessed by immunohistochemistry, was used as a marker of G2/M arrest. […] Briefly, the IHC protocol included heat and standard exposure to Ventana Cell Conditioning #1 antigen retrieval reagent. The primary antibody was diluted to 1:50 and incubated for 60 minutes at room temperature.
Time dependent changes in cleaved caspase 3 were also evaluated. In these studies, a rabbit polyclonal antibody produced by immunizing animals with a synthetic peptide corresponding to amino-terminal residues adjacent to (Asp175) in human caspase-3 was obtained from EMD Millipore (Cat#PC679). […]
Accumulation of phospho-Histone H3 (pHH3) positive nuclei, as assessed by immunohistochemistry, was used as a marker of G2/M arrest. […]

Series [4] relates to GIST T1 subcutaneous tumor xenograft. How it is done: The anti-tumor activity of anti-cKIT ADCs was evaluated in several tumor xenograft models.
Series [5] can be described thus: Serum exposure by ELISA in NCI-H526 xenograft mice. The conditions noted are these: NCI-H526 xenograft mice, 1.25, 2.5 and 5 mg/kg, FIG. 51. The text has this: To assess PK parameters, serum was collected via retro-orbital bleeds and analyzed via ELISA. The total antibody PK assay measures total antibody concentration, with/without DM1 by colorimetric ELISA. Plates are coated with anti-human IgG (Fc specific), and detection is with anti-human IgG-HRP before being read on an appropriate plate-reader. The conjugate PK assay measures antibody that is bound to at least one (1) DM1 molecule by colorimetric ELISA. In this format, plates are coated with anti-maytansine antibody, and detected with anti-human IgG-HRP.
(In an ELISA, binding on a coated surface is turned into a signal by an enzyme label.)

In series [6] the test system is NCI-H526 small cell lung cancer xenograft.
Series [7] relates to HAMLX5343 systemic primary AML xenograft. Description: In vivo efficacy, HAMLX5343 systemic primary AML xenograft.
Setting [8] is: GIST T1, Day 38, 1.25 mg/kg Single Dose IV.
The mark [9] stands for this setting: GIST T1, Day 38, 5 mg/kg Single Dose IV.
Where [10] appears, read: NCI-H526, Day 19, 1.25 mg/kg Single Dose IV.
Where [11] appears, read: NCI-H526, Day 19, 5 mg/kg Single Dose IV.
The mark [12] stands for this setting: HAMLX5343, 10 mg/kg intravenously once every two weeks.
The mark [13] stands for this setting: HAMLX5343, Day 71, 10 mg/kg Every 2 weeks, intravenously.

Entries after “also recorded” stand apart in the source; their conditions may differ. Where two headings read alike, the source gives them in different places.

B1: 20376 (antibody)
heavy: QVQLVQSGAEVKKPGSSVKVSCKASGGTFSSYAISWVRQAPGQGLEWMGGIIPMSGRTTYAQKFQGRVTITADESTSTAYMELSSLRSEDTAVYYCARDYGPEAPDYGQSTSYFWYYAFDPWGQGTLVTVSSASTKGPSVFPLAPSSKSTSGGTAALGCLVKDYFPEPVTVSWNSGALTSGVHTFPAVLQSSGLYSLSSVVTVPSSSLGTQTYICNVNHKPSNTKVDKRV[human IgG1 Fc omitted here]
light: DIELTQPPSVSVSPGQTASITCSGDNIPSYFVHWYQQKPGQAPVLVIYDDNDRPSGIPERFSGSNSGNTATLTISGTQAEDEADYYCSSWDQDTVVFGGGTKLTVLGQPKAAPSVTLFPPSSEELQANKATLVCLISDFYPGAVTVAWKADSSPVKAGVETTTPSKQSNNKYAASSYLSLTPEQWKSHRSYSCQVTHEGSTVEKTVAPTECS
Consider B1, for which the ADCC result in series [1] is on record as “not able to induce ADCC even at higher concentrations”. Moreover, the mast cell apoptosis result in series [2] is listed as “do not mediate primary human mast cell apoptosis; also recorded: do not lead to apoptosis of human primary mast cells ex vivo”.

B2: NEG085 (antibody)
heavy: EVQLVESGGGLVQPGGSLRLSCAASGFAFSGYYMAWVRQAPGKGLEWVANINYPGSSTYYLDSVKGRFTISRDNAKNSLYLQMNSLRAEDTAVYYCARGDYYGTTYWYFDVWGQGTTVTVSSASTKGPSVFPLAPSSKSTSGGTAALGCLVKDYFPEPVTVSWNSGALTSGVHTFPAVLQSSGLYSLSSVVTVPSSSLGTQTYICNVNHKPSNTKVDKRV[human IgG1 Fc omitted here]
light: DIQMTQSPSSLSASVGDRVTITCRASQSISSYLNWYQQKPGKAPKLLIYYTSRLQSGVPSRFSGSGSGTDFTLTISSLQPEDFATYYCQQGRRLWSFGGGTKVEIKRTVAAPSVFIFPPSDEQLKSGTASVVCLLNNFYPREAKVQWKVDNALQSGNSQESVTEQDSKDSTYSLSSTLTLSKADYEKHKVYACEVTHQGLSSPVTKSFNRGEC
For the molecule B2, the ADCC entry in series [1] is reported as “not able to induce ADCC even at higher concentrations”. Moreover, the mast cell apoptosis result in series [2] is “do not mediate primary human mast cell apoptosis; also recorded: do not lead to apoptosis of human primary mast cells ex vivo”.

B3: NEG085-MCC-DM1 (conjugate)
heavy: EVQLVESGGGLVQPGGSLRLSCAASGFAFSGYYMAWVRQAPGKGLEWVANINYPGSSTYYLDSVKGRFTISRDNAKNSLYLQMNSLRAEDTAVYYCARGDYYGTTYWYFDVWGQGTTVTVSSASTKGPSVFPLAPSSKSTSGGTAALGCLVKDYFPEPVTVSWNSGALTSGVHTFPAVLQSSGLYSLSSVVTVPSSSLGTQTYICNVNHKPSNTKVDKRV[human IgG1 Fc omitted here]
light: DIQMTQSPSSLSASVGDRVTITCRASQSISSYLNWYQQKPGKAPKLLIYYTSRLQSGVPSRFSGSGSGTDFTLTISSLQPEDFATYYCQQGRRLWSFGGGTKVEIKRTVAAPSVFIFPPSDEQLKSGTASVVCLLNNFYPREAKVQWKVDNALQSGNSQESVTEQDSKDSTYSLSSTLTLSKADYEKHKVYACEVTHQGLSSPVTKSFNRGEC
Turning to B3, the “percentage of cells positive for pHH3” value in series [3] is listed as “marked, time-dependent increase in the percentage of cells positive for pHH3 positivity”. Besides, the “time of peak pHH3 positivity post dose” value in series [3] was 1-2 days. For the same molecule, the tolerability result is “well tolerated at all dose levels” in series [4] (GIST T1, 1.25, 2.5 or 5 mg/kg single i.v. dose); “well tolerated” in series [6] (NCI-H526, 1.25, 2.5 and 5 mg/kg single i.v. dose); “well tolerated” in series [7] (setting [12]). Further, the “Mean change of tumor volume” value in series [4] (setting [8]) was 712 ± 225 mm3 ± SEM; in series [4] (setting [9]) it was 140 ± 63 mm3 ± SEM; in series [6] (setting [10]), 99 ± 57 mm3 ± SEM; in series [6] (setting [11]) it was −174 ± 10 mm3 ± SEM; in series [7] (setting [13]), 37.4 ± 5.4 % CD45 positive PBMC's ± SEM. Moreover, the “Mean change of tumor volume vs control (ΔT/ΔC)” value is on record as 63% in series [4] (setting [8]) and 12% in series [4] (setting [9]). For the same molecule, the Survival in series [4] (setting [8]) was 9/9; in series [4] (setting [9]) it was 9/9; in series [6] (setting [10]), 8/9; in series [6] (setting [11]) it was 9/9; in series [7] (setting [13]), 6/6. In addition, the “antitumor activity (tumor volume)” value in series [4] (GIST T1, SCID-beige mice, single i.v. dose 0.625 mg/kg, 0.625 mg/kg) is recorded as “smallest tumor volumes in the tightest range; also recorded: low efficacy”; in series [6] (NCI-H526, single i.v. dose 1.25 mg/kg) it was “initially induced stasis in tumor volume followed by tumor regrowth”; in series [6] (NCI-H526, single i.v. dose 5 mg/kg), “significantly efficacious”. Besides, in series [5], the “serum exposure of the total antibody and ADC” value is “dose dependent serum exposure”. In addition, the “Mean change of body weight” value in series [6] (setting [10]) was −0.2 ± 0.8 % ± SEM; in series [6] (setting [11]), 3.8 ± 1.5 % ± SEM. The “Mean change of tumor volume vs control (T/C)” value in series [6] (setting [10]) is 8%; in series [7] (setting [13]) it was 48.3%. Also, the “time after the single treatment at which tumors regrow” value in series [6] (NCI-H526, single i.v. dose 2.5 and 5 mg/kg) is recorded as “approximately 3 weeks”. Besides, the “antitumor activity (leukemic burden)” value in series [7] (setting [12]) is “delayed tumor progression”.
